The source of these data is the supplement of paper PMC7826260.

Some of the results follow. One pool of 16,384 single-stranded DNAs met each Rep nickase domain in vitro (1 h at 37 °C, 3 µM enzyme); the outer parts of the 90-letter strands are left off. A value is the log2 ratio of uncut reads to the pool without enzyme; the lower, the more was cut; hits are not called. Reads are scaled to the total, so uncut sequences can rise above 0 when many others are cut.

Common to all, as to assay: uncleaved DNA left, log2 of reads against the no-enzyme library (log2 ratio); higher = less cleavage (more negative = more Rep cleavage of the k-mer); sequences stand for … in CTCGTCCG…ACCGGAGA
The test system of experiment [1] is T1, Rep nickase domain of Muscovy duck circovirus.
T1 sequence (protein, residues 1-111, tag omitted): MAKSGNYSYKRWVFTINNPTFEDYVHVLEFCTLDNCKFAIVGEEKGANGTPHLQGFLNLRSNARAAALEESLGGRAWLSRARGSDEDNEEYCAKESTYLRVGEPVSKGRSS
As to the method: (§1)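 A pool of 90-nt single-stranded DNAs with seven random bases just before the constant AC of the nick site (name = the seven bases) was cut by 3 µM recombinant His6-SUMO-tagged Rep nickase domain (300 nM DNA, 50 mM HEPES pH 8.0, 50 mM NaCl, 1 mM MnCl2, 1 h, 37 °C, three replicates). Uncut DNA was amplified and sequenced.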

For experiment [2], the system named is T2, Rep nickase domain of banana bunchy top virus.
T2 sequence (protein, residues 1-94, tag omitted): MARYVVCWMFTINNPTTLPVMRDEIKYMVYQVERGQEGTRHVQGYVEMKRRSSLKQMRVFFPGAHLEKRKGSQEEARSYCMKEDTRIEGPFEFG
As to the method:
as §1

For experiment [3], the system named is T3, Rep nickase domain of cabbage leaf curl virus.
T3 sequence (protein, residues 1-116, tag omitted): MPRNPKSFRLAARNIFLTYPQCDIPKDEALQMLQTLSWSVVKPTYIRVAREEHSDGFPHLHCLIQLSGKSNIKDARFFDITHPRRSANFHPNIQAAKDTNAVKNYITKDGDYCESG
As to the method:
as §1

Experiment [4] has as its system T4, Rep nickase domain of chickpea chlorotic dwarf virus.
T4 sequence (protein, residues 1-124, tag omitted): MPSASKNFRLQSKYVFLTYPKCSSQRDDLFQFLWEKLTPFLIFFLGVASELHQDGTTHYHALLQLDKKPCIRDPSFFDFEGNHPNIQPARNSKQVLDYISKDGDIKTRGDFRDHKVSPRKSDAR
As to the method:
as §1

For experiment [5], the system named is T5, Rep nickase domain of faba bean necrotic yellows virus.
T5 sequence (protein, residues 1-98, tag omitted): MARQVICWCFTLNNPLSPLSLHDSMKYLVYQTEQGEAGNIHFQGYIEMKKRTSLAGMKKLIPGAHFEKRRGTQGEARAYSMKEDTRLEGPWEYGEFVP
As to the method: as §1
Experiment [6] has as its system T6, Rep nickase domain of maize striate mosaic virus.
T6 sequence (protein, residues 1-117, tag omitted): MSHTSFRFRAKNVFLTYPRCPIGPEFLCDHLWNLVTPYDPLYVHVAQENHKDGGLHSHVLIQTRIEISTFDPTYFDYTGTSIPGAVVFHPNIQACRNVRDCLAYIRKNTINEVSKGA
As to the method:
as §1

In experiment [7] the test system is T7, Rep nickase domain of porcine circovirus 2.
T7 sequence (protein, residues 2-116, tag omitted): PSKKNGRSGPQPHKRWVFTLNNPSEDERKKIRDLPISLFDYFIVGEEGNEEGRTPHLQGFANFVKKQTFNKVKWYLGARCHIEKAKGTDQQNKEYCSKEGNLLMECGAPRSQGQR
As to the method:
as §1

The test system of experiment [8] is T8, Rep nickase domain of tomato golden mosaic virus.
T8 sequence (protein, residues 1-124, tag omitted): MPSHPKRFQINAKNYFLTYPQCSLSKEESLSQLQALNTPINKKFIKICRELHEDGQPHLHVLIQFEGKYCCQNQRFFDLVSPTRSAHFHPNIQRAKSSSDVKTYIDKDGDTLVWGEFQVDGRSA
As to the method:
as §1

Experiment [9] relates to T9, Rep nickase domain of tomato yellow leaf curl virus.
T9 sequence (protein, residues 1-136, tag omitted): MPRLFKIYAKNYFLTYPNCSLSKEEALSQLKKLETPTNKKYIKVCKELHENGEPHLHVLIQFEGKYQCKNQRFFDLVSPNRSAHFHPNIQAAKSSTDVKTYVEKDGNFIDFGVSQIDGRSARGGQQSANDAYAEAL
As to the method: as §1
Experiment [10] deals with T10, Rep nickase domain of wheat dwarf virus.
T10 sequence (protein, residues 1-137, tag omitted): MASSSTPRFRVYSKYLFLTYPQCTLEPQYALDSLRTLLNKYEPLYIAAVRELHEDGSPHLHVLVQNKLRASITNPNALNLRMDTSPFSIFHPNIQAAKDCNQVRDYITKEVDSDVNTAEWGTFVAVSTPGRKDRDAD
As to the method: as §1

Turning to TCTATAC, the “uncleaved DNA left (log2)” value in experiment [1] is -0.105; in experiment [2] it was -0.201; in [3], 0.0429; in [4] it was -0.706; in experiment [5], -0.0577; in [6], -0.677. Further, the “uncleaved DNA left (log2)” value was 0.0561 in experiment [7], -0.0975 in experiment [8], -0.116 in [9] and -0.155 in [10].

Turning to CTGGTGT, the “uncleaved DNA left (log2)” value in experiment [1] is -0.0444; in experiment [2], -0.0159; in [3] it was -0.193; in experiment [4], -0.593; in [5], 0.09; in [6], -0.667. Besides, the “uncleaved DNA left (log2)” value in [7] was -0.0203; in experiment [8], -0.0499; in experiment [9], 0.0852; in experiment [10], -0.135.

GGGAGCG: the “uncleaved DNA left (log2)” value in [1] is -0.0727; in experiment [2], -0.0276; in experiment [3], -0.296; in [4], 0.179; in experiment [5] it was 0.0452; in [6], -0.18. The “uncleaved DNA left (log2)” value in experiment [7] was 0.143; in experiment [8] it was -0.0204; in [9] it was -0.0416; in experiment [10], -0.0349.

In the case of GATAACT, the “uncleaved DNA left (log2)” value was 0.0113 in [1]; -0.0466 in experiment [2]; -0.105 in experiment [3]; -2.39 in experiment [4]; 0.0413 in [5]; 0.616 in [6]. Further, the “uncleaved DNA left (log2)” value in experiment [7] was -0.96; in [8], 0.125; in [9] it was 0.207; in experiment [10] it was 0.155.

TGGCGAT: the “uncleaved DNA left (log2)” value in [1] came to 0.18; in [2] it was 0.102; in experiment [3], 0.057; in experiment [4], 0.575; in [5] it was 0.0918; in experiment [6], 0.495. Also, the “uncleaved DNA left (log2)” value in [7] was 0.186; in experiment [8], 0.0705; in [9], 0.0564; in experiment [10], 0.0681.

Take GGTCAAA: the “uncleaved DNA left (log2)” value in [1] came out at 0.0185; in experiment [2] it was 0.143; in [3], 0.529; in experiment [4], 1.39; in experiment [5] it was 0.0958; in [6], 1.89. The “uncleaved DNA left (log2)” value in experiment [7] came out at 0.229; in [8], 0.134; in [9], 0.0449; in experiment [10] it was 0.136.

With GTGGGCT, the “uncleaved DNA left (log2)” value amounted to 0.00714 in [1]; 0.00431 in experiment [2]; 0.695 in experiment [3]; 1.63 in experiment [4]; 0.0277 in experiment [5]; 2.18 in [6]. The “uncleaved DNA left (log2)” value in experiment [7] was 0.122; in [8], -0.0268; in [9], -0.0493; in experiment [10] it was 0.097.

In the case of CGGCGGA, the “uncleaved DNA left (log2)” value in experiment [1] is 0.142; in experiment [2] it was 0.141; in experiment [3] it was -0.142; in [4] it was 0.358; in experiment [5] it was 0.0219; in experiment [6], 0.388. Moreover, the “uncleaved DNA left (log2)” value in experiment [7] was 0.182; in experiment [8] it was 0.186; in experiment [9], -0.0524; in experiment [10], -0.101.

As for AGTTAAG, the “uncleaved DNA left (log2)” value in experiment [1] is 0.0603; in [2] it was -0.0988; in [3], -0.791; in experiment [4], -0.473; in experiment [5], 0.023; in [6], -1.27. For the same sequence, the “uncleaved DNA left (log2)” value in experiment [7] is 0.141; in experiment [8], 0.118; in experiment [9], -0.00414; in experiment [10], -0.135.

Turning to GTTGACG, the “uncleaved DNA left (log2)” value in experiment [1] is 0.0191; in experiment [2], 0.0122; in experiment [3] it was -0.524; in experiment [4], -0.213; in experiment [5], -0.0247; in [6], -0.601. Besides, the “uncleaved DNA left (log2)” value in experiment [7] is 0.18; in [8], 0.156; in [9] it was 0.124; in experiment [10], -0.0391.

On to TCAGATG, for which the “uncleaved DNA left (log2)” value is 0.0213 in experiment [1]; 0.0807 in experiment [2]; 0.188 in [3]; 0.831 in experiment [4]; 0.0447 in [5]; 0.895 in experiment [6]. Besides, the “uncleaved DNA left (log2)” value was 0.128 in [7], 0.15 in experiment [8], -0.0138 in experiment [9] and 0.0207 in [10].

In the case of TTGGCAG, the “uncleaved DNA left (log2)” value was 0.0843 in experiment [1]; 0.131 in experiment [2]; -0.424 in [3]; -0.241 in experiment [4]; 0.0683 in experiment [5]; -0.825 in [6]. For the same sequence, the “uncleaved DNA left (log2)” value in [7] is 0.238; in experiment [8], 0.0937; in experiment [9], 0.04; in [10] it was 0.0167.

As for TAACGGT, the “uncleaved DNA left (log2)” value in experiment [1] is 0.0756; in [2], 0.122; in experiment [3], -0.637; in [4], -1.97; in experiment [5], 0.0088; in experiment [6], 1.45. Further, the “uncleaved DNA left (log2)” value in [7] was 0.0852; in [8] it was 0.137; in experiment [9] it was -0.0555; in [10] it was -0.0842.

As to TAGTCTC, the “uncleaved DNA left (log2)” value in experiment [1] is -0.565; in experiment [2] it was -0.889; in experiment [3], -0.766; in experiment [4], -1.09; in experiment [5], -0.916; in [6], 0.0429. Moreover, the “uncleaved DNA left (log2)” value was -3.29 in experiment [7], -0.282 in [8], -0.0791 in experiment [9] and -0.218 in experiment [10].

Take TGCTACA: the “uncleaved DNA left (log2)” value in [1] was -0.115; in experiment [2], 0.2; in experiment [3] it was -1.86; in experiment [4], -2.09; in [5], 0.0325; in experiment [6], -0.12. For the same sequence, the “uncleaved DNA left (log2)” value is -2.02 in experiment [7], -0.905 in experiment [8], 0.142 in experiment [9] and -1.36 in experiment [10].
